According to publication PMC4336329 (PLoS ONE, 2015):
Out of some 310,000 compounds screened, about 2,200 (0.71%) showed an effect of 50% or more. Effects have a minus sign here. The list shows a part of the results.

target: human ether-à-go-go-related gene (hERG) potassium channel (human, UniProt Q12809); assay: primary screen, population patch clamp on CHO cells stably expressing hERG
Sequence (Q12809 whole entry, looked up): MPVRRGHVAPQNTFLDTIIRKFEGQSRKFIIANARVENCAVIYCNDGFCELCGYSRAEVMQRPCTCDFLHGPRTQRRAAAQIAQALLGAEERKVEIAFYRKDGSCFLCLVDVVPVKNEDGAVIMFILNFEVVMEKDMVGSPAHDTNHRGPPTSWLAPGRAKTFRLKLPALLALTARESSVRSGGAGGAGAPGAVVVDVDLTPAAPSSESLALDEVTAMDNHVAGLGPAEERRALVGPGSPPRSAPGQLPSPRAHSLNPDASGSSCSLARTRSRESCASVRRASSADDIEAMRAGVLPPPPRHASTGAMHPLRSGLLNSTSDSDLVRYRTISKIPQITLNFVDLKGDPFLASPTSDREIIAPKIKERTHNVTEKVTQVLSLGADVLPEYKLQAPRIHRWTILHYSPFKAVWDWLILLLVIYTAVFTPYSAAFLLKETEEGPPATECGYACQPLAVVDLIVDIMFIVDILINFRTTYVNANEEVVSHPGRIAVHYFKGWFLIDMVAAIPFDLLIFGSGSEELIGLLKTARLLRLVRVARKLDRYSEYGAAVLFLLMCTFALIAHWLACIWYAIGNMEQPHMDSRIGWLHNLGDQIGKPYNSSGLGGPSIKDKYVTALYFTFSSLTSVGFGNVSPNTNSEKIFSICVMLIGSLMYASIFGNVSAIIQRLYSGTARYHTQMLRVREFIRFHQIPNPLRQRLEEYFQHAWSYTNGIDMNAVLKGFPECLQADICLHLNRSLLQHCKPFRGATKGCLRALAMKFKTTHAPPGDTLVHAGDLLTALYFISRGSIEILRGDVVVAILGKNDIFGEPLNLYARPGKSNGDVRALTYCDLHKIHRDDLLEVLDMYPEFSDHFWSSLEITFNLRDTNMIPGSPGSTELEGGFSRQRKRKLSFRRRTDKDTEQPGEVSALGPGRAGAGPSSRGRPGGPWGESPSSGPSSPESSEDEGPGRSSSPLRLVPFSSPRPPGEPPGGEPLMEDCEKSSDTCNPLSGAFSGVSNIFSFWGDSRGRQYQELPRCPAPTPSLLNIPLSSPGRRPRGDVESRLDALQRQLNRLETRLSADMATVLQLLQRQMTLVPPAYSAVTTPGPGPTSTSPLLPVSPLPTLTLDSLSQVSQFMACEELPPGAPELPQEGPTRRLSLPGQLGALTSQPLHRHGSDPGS

Compound | hERG current change (%, negative = inhibition) at 1uM
COc1ccccc1/C=C1\SC(=S)N(NS(=O)(=O)c2ccccc2)C1=O | 13.9%
Cc1ccc(C)c(N2CCN(C(=O)C3CCN(c4nnc(N5CCCC5=O)s4)CC3)CC2)c1 | 13.6%
CCn1c(CCNC(=O)c2ccc(Cl)cc2)nnc1SCC(=O)NC1CCCC1 | 0.748%
O=[N+]([O-])c1ccc(Cn2cc(-c3cccc(C(F)(F)F)c3)nn2)cc1 | 6.13%
O=C(CCCc1ccccc1)NCCS(=O)(=O)N1CCN(c2ccc(F)cc2)CC1 | -11.4%
CCOC(=O)C1CCN(S(=O)(=O)c2ccc3c(ccn3C)c2)CC1 | 9.85%
CCOCCCn1c(SCC(=O)NCc2ccc3c(c2)OCO3)nc2ccccc2c1=O | -11.2%
CC(C)C(=O)NC(NC(=S)NC1CCS(=O)(=O)C1)C(Cl)(Cl)Cl (centres unmarked) | 14.6%
Cn1c(SCC(N)=O)nnc1C1CCN(C(=O)NC2CCCCC2)CC1 | 11.1%
CCCCCOC(=O)Cn1c(=O)oc2ccc(C)cc21 | 10.1%
COc1cc(/C=C2\SC(=O)NC2=O)ccc1Oc1ccc([N+](=O)[O-])cn1 | 7.31%
COc1cc2c3c(c1OC)C1(C=CC(=O)C=C1)CC3N(C(=O)c1ccccc1)CC2 (centres unmarked) | -5.13%
CCOC(=O)c1cccc(NC(=O)C2CCCN(S(=O)(=O)c3cnc[nH]3)C2)c1 (centres unmarked) | 9.37%
CCOC(=O)CNC(=O)c1nn(-c2ccc(OCC)cc2)c(=O)c2ccccc12 | 8.34%
O=C(Nc1ccnn1C1CCN(Cc2ccccn2)CC1)c1cccc(F)c1 | 6.56%
COc1ccc(N(CC(=O)N/N=C/c2cccnc2)S(=O)(=O)c2ccc(C)cc2)cc1OC | -1.14%
Cc1ccc(NC(=O)CC(=O)c2ccccc2)cc1C | 10.5%
CCOC(=O)CNS(=O)(=O)CCN1C(=O)c2ccccc2C1=O | 4.71%
CCn1c(N)c(C(=O)COC(=O)CCc2nc3ccccc3c(=O)[nH]2)c(=O)[nH]c1=O | 10.7%

Compound | hERG current change (%, negative = inhibition) at 1uM
Fc1ccc(C2Nc3cccc4cccc(c34)N2)cc1 | 13.2%
COc1cc(COc2ccc(-c3nnco3)cc2)ccc1OC(F)F | 22.9%
Cc1csc(NC(=O)CSc2nncc(=O)n2N)n1 | 15.7%
Cc1ccc2c(=O)c(CN3CCCCCC3)c(C)[nH]c2c1C | 11.3%
Cn1c(/C(C#N)=C(\O)c2ccc(S(=O)(=O)N3CCCCC3)cc2)nc2ccccc21 | 11.2%
Cc1cc(C)cc(NC(=O)c2cc(C)nn2C)c1 | 12.1%
CC1Cc2nc(SCC(=O)Nc3ccc(F)cc3F)n(C)c(=O)c2S1 (centres unmarked) | -0.328%
S=C(NC1CCCCC1)N1CCN(Cc2ccccc2Cl)CC1 | 9.5%
CCc1ccc(N2CC(C(=O)Nc3ccc(S(=O)(=O)N4CCCCC4)cc3)CC2=O)cc1 (centres unmarked) | 2.88%
O=C(NNC(=O)c1cccnc1)c1ccncc1 | 13.8%
CCN1C(=O)C(CC(=O)Nc2ccc(OC)cc2)N(CCCN2CCN(c3ccc(OC)cc3)CC2)C1=S (centres unmarked) | -23%
COC(=O)CSc1nc2c(c(-c3ccc(C)o3)c1C#N)CCCC2 | 3.99%
C=CCN1C(=O)C(Cc2cccc(Cl)c2)SC1=Nc1ccc(C(=O)O)cc1 (centres unmarked) | 4.34%
CC(CNS(=O)(=O)c1ccccc1)(c1ccccc1)N1CCOCC1.Cl (centres unmarked) | 11.5%
CCOc1ccccc1C(=O)NC(C(=O)Nc1cccc(S(N)(=O)=O)c1)C(C)C (centres unmarked) | 16%
N#Cc1c(NC2CCCCC2)nc(-c2ccco2)c2c1CCCC2 | 17.3%
COc1ccccc1/C=N/NC(=O)CN(C1=NS(=O)(=O)c2ccccc21)c1ccccc1 | 7.01%
Cc1cccc(NC(=O)CCCCCN2C(=O)c3ccccc3C2=O)n1 | 2.38%
CCCCNC(=O)Nc1ccc(C(O)(C(=O)OC)C(F)(F)F)cc1 (centres unmarked) | -2.2%

Compound | hERG current change (%, negative = inhibition) at 1uM
c1ccc(Nc2nc(NCCN3CCOCC3)nc(Nc3ccccc3)n2)cc1 | 21.6%
O=C(O)C[C@@H](O)C(=O)O | 16.7%
CC1CCCCN1CCCNc1c(C=O)c(=O)[nH]c2ccccc12 (centres unmarked) | 10.1%
CC(=O)CSc1nc2ccc(Nc3nc(N4CCOCC4)nc(N4CCOCC4)n3)cc2s1 | 17.3%
COc1ccc2c(c1)O/C(=C\c1ccco1)C2=O | 0.56%
O=C(COC(=O)CNS(=O)(=O)c1ccccc1)NC12CC3CC(CC(C3)C1)C2 | -11.1%
Cc1nsc(Nc2ccccc2)c1C#N | 4.98%
CCOc1ccc2[nH]c(=O)c(CN(CCc3ccccc3)C(=O)N3CCOCC3)cc2c1 | 0.203%
COc1ccc(C(C)=O)cc1CSc1nnc(C)s1 | 14.7%
O=C(Cn1ccc2ccccc2c1=O)NCC(=O)Nc1ccc(F)cc1F | 14%
O=C1C2CC=C(Cl)CC2C(=O)N1CCc1c[nH]c2ccccc12 (centres unmarked) | 8.44%
C/C(=N\Nc1ncc(Cl)cc1Cl)c1cccs1 | 3.47%
CCOC(=O)c1nn(-c2ccccc2)c(=O)cc1SC(C)CC (centres unmarked) | 15.9%
COc1ccc(-c2noc3c2-c2nc(-c4ccccc4Cl)sc2CC3)cc1 | 10.9%
COc1ccc(C(=O)Nc2ccc3nc4n(c(=O)c3c2)CCCC4)cc1[N+](=O)[O-] | 13.7%
CCOc1cccc(Oc2ncccc2C(=O)/C(C#N)=C/N(C)C)c1 | 21.9%
COc1ccc2c(c1OC)C(=O)OC2Nc1nc(-c2cccc([N+](=O)[O-])c2)cs1 (centres unmarked) | 15.4%
CCOC(=O)N1CCN(c2c(N3CCN(c4ccc(OC)cc4)CC3)c(=O)c2=O)CC1 | -13.3%
